Measured values taken from article PMC12820563.
The other results are listed elsewhere or left out. The list includes weakly bound sequences.

Target: T1, MBP-FoxP3dN (UniProt Q99JB6)
T1 sequence: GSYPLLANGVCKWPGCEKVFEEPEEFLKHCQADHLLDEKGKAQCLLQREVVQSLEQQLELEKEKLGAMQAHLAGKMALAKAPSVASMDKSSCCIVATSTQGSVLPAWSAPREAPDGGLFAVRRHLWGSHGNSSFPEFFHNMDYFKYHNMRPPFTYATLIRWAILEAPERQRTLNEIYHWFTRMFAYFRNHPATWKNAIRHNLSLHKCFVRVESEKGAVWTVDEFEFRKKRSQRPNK
Assay: PD-seq (MBP pull-down with sequencing)
Conditions: 20 mM Tris-HCl pH 7.5, 100 mM NaCl, 1.5 mM MgCl2, 0.4 uM protein, 0.1 uM dsDNA library, 30 min, room temperature, amylose pull-down; high values mean tight binding; double strand, one strand shown

Sequence | binding signal (RPM ratio (pull-down/input))
GATGATTGTTCTCCCAGCTGATGAATTTTCAGCTTCGAGTAAACAAATTTTCCTAATCTTTCTGTTCAAGCGCCATCTAC | 0.287
GATGATTGTTCTCCCAGCTGATGAATTACAATATTCGAGTAAACAAATTTTCCTAATCTTTCTGTTCAAGCGCCATCTAC | 0.962
GATGATTGTTCTCCCAGCTGATGAATTTTCTGATTCGAGTAAACAAATTTTCCTAATCTTTCTGTTCAAGCGCCATCTAC | 0.284
GATGATTGTTCTCCCAGCTGATGAATTGCTCCCCTCGAGTAAACAAATTTTCCTAATCTTTCTGTTCAAGCGCCATCTAC | 0.458
GATGATTGTTCTCCCAGCTGATGAATTAAACCGCTCGAGTAAACAAATTTTCCTAATCTTTCTGTTCAAGCGCCATCTAC | 0.279
GATGATTGTTCTCCCAGCTGATGAATTAAGTAACTCGAGTAAACAAATTTTCCTAATCTTTCTGTTCAAGCGCCATCTAC | 1.58
GATGATTGTTCTCCCAGCTGATGAATTGCTCAACTCGAGTAAACAAATTTTCCTAATCTTTCTGTTCAAGCGCCATCTAC | 0.454
GATGATTGTTCTCCCAGCTGATGAATTCGGGCCATCGAGTAAACAAATTTTCCTAATCTTTCTGTTCAAGCGCCATCTAC | 1.05
GATGATTGTTCTCCCAGCTGATGAATTTAACGTATCGAGTAAACAAATTTTCCTAATCTTTCTGTTCAAGCGCCATCTAC | 0.792
GATGATTGTTCTCCCAGCTGATGAATTTATGTACTCGAGTAAACAAATTTTCCTAATCTTTCTGTTCAAGCGCCATCTAC | 5.18
GATGATTGTTCTCCCAGCTGATGAATTTGGTTAATCGAGTAAACAAATTTTCCTAATCTTTCTGTTCAAGCGCCATCTAC | 0.489
GATGATTGTTCTCCCAGCTGATGAATTACGCGAATCGAGTAAACAAATTTTCCTAATCTTTCTGTTCAAGCGCCATCTAC | 0.382
GATGATTGTTCTCCCAGCTGATGAATTCCTACCTTCGAGTAAACAAATTTTCCTAATCTTTCTGTTCAAGCGCCATCTAC | 0.26
GATGATTGTTCTCCCAGCTGATGAATTTGGTTACTCGAGTAAACAAATTTTCCTAATCTTTCTGTTCAAGCGCCATCTAC | 3.22
GATGATTGTTCTCCCAGCTGATGAATTACTGACTTCGAGTAAACAAATTTTCCTAATCTTTCTGTTCAAGCGCCATCTAC | 0.421
GATGATTGTTCTCCCAGCTGATGAATTCGCACGCTCGAGTAAACAAATTTTCCTAATCTTTCTGTTCAAGCGCCATCTAC | 0.507
GATGATTGTTCTCCCAGCTGATGAATTAGTACGTTCGAGTAAACAAATTTTCCTAATCTTTCTGTTCAAGCGCCATCTAC | 0.728
GATGATTGTTCTCCCAGCTGATGAATTTAGGTGATCGAGTAAACAAATTTTCCTAATCTTTCTGTTCAAGCGCCATCTAC | 0.601
GATGATTGTTCTCCCAGCTGATGAATTATAGGCCTCGAGTAAACAAATTTTCCTAATCTTTCTGTTCAAGCGCCATCTAC | 0.536
GATGATTGTTCTCCCAGCTGATGAATTCGCAGGCTCGAGTAAACAAATTTTCCTAATCTTTCTGTTCAAGCGCCATCTAC | 0.326

Sequence | binding signal (RPM ratio (pull-down/input))
GATGATTGTTCTCCCAGCTGATGAATTTGAACTCTCGAGTAAACAAATTTTCCTAATCTTTCTGTTCAAGCGCCATCTAC | 0.423
GATGATTGTTCTCCCAGCTGATGAATTGCCTTCCTCGAGTAAACAAATTTTCCTAATCTTTCTGTTCAAGCGCCATCTAC | 0.773
GATGATTGTTCTCCCAGCTGATGAATTGCGCGAATCGAGTAAACAAATTTTCCTAATCTTTCTGTTCAAGCGCCATCTAC | 0.672
GATGATTGTTCTCCCAGCTGATGAATTACTCGATTCGAGTAAACAAATTTTCCTAATCTTTCTGTTCAAGCGCCATCTAC | 0.266
GATGATTGTTCTCCCAGCTGATGAATTATACGGATCGAGTAAACAAATTTTCCTAATCTTTCTGTTCAAGCGCCATCTAC | 0.294
GATGATTGTTCTCCCAGCTGATGAATTTATTTGATCGAGTAAACAAATTTTCCTAATCTTTCTGTTCAAGCGCCATCTAC | 2.62
GATGATTGTTCTCCCAGCTGATGAATTAGTACACTCGAGTAAACAAATTTTCCTAATCTTTCTGTTCAAGCGCCATCTAC | 0.992
GATGATTGTTCTCCCAGCTGATGAATTCTAGATCTCGAGTAAACAAATTTTCCTAATCTTTCTGTTCAAGCGCCATCTAC | 0.279
GATGATTGTTCTCCCAGCTGATGAATTAATCATATCGAGTAAACAAATTTTCCTAATCTTTCTGTTCAAGCGCCATCTAC | 0.623
GATGATTGTTCTCCCAGCTGATGAATTGGAGGCGTCGAGTAAACAAATTTTCCTAATCTTTCTGTTCAAGCGCCATCTAC | 0.855
GATGATTGTTCTCCCAGCTGATGAATTTTTAGCTTCGAGTAAACAAATTTTCCTAATCTTTCTGTTCAAGCGCCATCTAC | 0.264
GATGATTGTTCTCCCAGCTGATGAATTAACCGGTTCGAGTAAACAAATTTTCCTAATCTTTCTGTTCAAGCGCCATCTAC | 0.239
GATGATTGTTCTCCCAGCTGATGAATTCCTTAAATCGAGTAAACAAATTTTCCTAATCTTTCTGTTCAAGCGCCATCTAC | 0.203
GATGATTGTTCTCCCAGCTGATGAATTGTAGGCCTCGAGTAAACAAATTTTCCTAATCTTTCTGTTCAAGCGCCATCTAC | 0.674
GATGATTGTTCTCCCAGCTGATGAATTAAGTCTTTCGAGTAAACAAATTTTCCTAATCTTTCTGTTCAAGCGCCATCTAC | 0.618
GATGATTGTTCTCCCAGCTGATGAATTTGACTTGTCGAGTAAACAAATTTTCCTAATCTTTCTGTTCAAGCGCCATCTAC | 0.698
GATGATTGTTCTCCCAGCTGATGAATTGCCTTCGTCGAGTAAACAAATTTTCCTAATCTTTCTGTTCAAGCGCCATCTAC | 0.804
GATGATTGTTCTCCCAGCTGATGAATTCCCGAGCTCGAGTAAACAAATTTTCCTAATCTTTCTGTTCAAGCGCCATCTAC | 0.177
GATGATTGTTCTCCCAGCTGATGAATTATATCTTTCGAGTAAACAAATTTTCCTAATCTTTCTGTTCAAGCGCCATCTAC | 0.541
GATGATTGTTCTCCCAGCTGATGAATTTGGGGAGTCGAGTAAACAAATTTTCCTAATCTTTCTGTTCAAGCGCCATCTAC | 0.404
